This passage reports cAMP reporter score and surface expression score results from the GPR68 mutational scans of Howard et al. (2025).

The least precise scores are not listed. Two further conditions of the source, in which the scores hardly spread, are not listed. Names with del lack the residues named; names with ins carry added residues between the positions named. For some assays here: The data file names ogerin without a concentration.

First the molecules themselves.
B1: GPR68, Q15743 (parent)
chain: MGNITADNSSMSCTIDHTIHQTLAPVVYVTVLVVGFPANCLSLYFGYLQIKARNELGVYLCNLTVADLFYICSLPFWLQYVLQHDNWSHGDLSCQVCGILLYENIYISVGFLCCISVDRYLAVAHPFRFHQFRTLKAAVGVSVVIWAKELLTSIYFLMHEEVIEDENQHRVCFEHYPIQAWQRAINYYRFLVGFLFPICLLLASYQGILRAVRRSHGTQKSRKDQIQRLVLSTVVIFLACFLPYHVLLLVRSVWEASCDFAKGVFNAYHFSLLLTSFNCVADPVLYCFVSETTHRDLARLRGACLAFLTCSRTGRAREAYPLGAPEASGKSGAQGEEPELLTKLHPAFQTPNSPGSGGFPTGRLA

Variants of B1 are the subject of series [1]. The series can be described thus: cAMP reporter score (Enrich2 score, wild type = 0); higher = more signal; HEK293T, FACS bins.
Series [2] covers variants of B1. The series is described as follows: surface expression score (Enrich2 score, wild type = 0); higher = more signal; HEK293T, FACS bins.

C61_N62insGSG: the cAMP reporter score in series [1] (pH 5.5) is -1.65; in series [1] (pH 6), -1.42; in series [1] (pH 6, modulator: ogerin), -0.351; in series [1] (pH 6.5, modulator: ogerin), -0.563. Further, the surface expression score in series [2] was -3.71.

For Y59_L60del, the cAMP reporter score is -0.949 in series [1] (pH 5.5); -2.04 in series [1] (pH 6); -1.03 in series [1] (pH 6.5, modulator: ogerin). In series [2], the surface expression score was -2.28.

Regarding N54_L56del, the cAMP reporter score in series [1] (pH 5.5) was -1.38; in series [1] (pH 6), -1.47; in series [1] (pH 6, modulator: ogerin), -2.81; in series [1] (pH 6.5, modulator: ogerin), -0.614. For the same variant, in series [2], the surface expression score is -2.54.

On to E55_L56del, for which the cAMP reporter score was -1.25 in series [1] (pH 5.5); -1.46 in series [1] (pH 6); -2.26 in series [1] (pH 6, modulator: ogerin); -1.47 in series [1] (pH 6.5, modulator: ogerin). Further, the surface expression score in series [2] was -2.21.

As to A52del, the cAMP reporter score in series [1] (pH 5.5) was -1.3; in series [1] (pH 6.5, modulator: ogerin), 0.334. For the same variant, the surface expression score in series [2] is -1.7.

With N54_E55insG, the cAMP reporter score in series [1] (pH 5.5) was -0.961; in series [1] (pH 6), -1.15; in series [1] (pH 6, modulator: ogerin), -0.598; in series [1] (pH 6.5, modulator: ogerin), -0.815. Besides, in series [2], the surface expression score was -1.63.

On to A66_D67insGSG, for which the cAMP reporter score was -1.57 in series [1] (pH 5.5); -2.2 in series [1] (pH 6); -1.26 in series [1] (pH 6, modulator: ogerin); -1.45 in series [1] (pH 6.5, modulator: ogerin). The surface expression score in series [2] was -2.29.

As for C61del, the cAMP reporter score is -1.29 in series [1] (pH 5.5); -1.21 in series [1] (pH 6); -1.73 in series [1] (pH 6, modulator: ogerin); -1.24 in series [1] (pH 6.5, modulator: ogerin). Besides, the surface expression score in series [2] is -3.03.

Turning to E55_L56insG, the cAMP reporter score was -1.68 in series [1] (pH 5.5); -1.12 in series [1] (pH 6); -2.27 in series [1] (pH 6, modulator: ogerin); -1.25 in series [1] (pH 6.5, modulator: ogerin). The surface expression score in series [2] was -0.101.

Turning to L60_C61insGS, the cAMP reporter score in series [1] (pH 5.5) was -0.485; in series [1] (pH 6), -0.664; in series [1] (pH 6, modulator: ogerin), -1.02; in series [1] (pH 6.5, modulator: ogerin) it was -0.441.

As for L56C, the cAMP reporter score is -1.13 in series [1] (pH 5.5); -1.32 in series [1] (pH 6); -1.55 in series [1] (pH 6, modulator: ogerin); -1.06 in series [1] (pH 6.5, modulator: ogerin). Besides, the surface expression score in series [2] was -2.3.

Turning to L56D, the cAMP reporter score in series [1] (pH 5.5) was -0.79; in series [1] (pH 6.5, modulator: ogerin) it was -1.7. The surface expression score in series [2] is -1.83.

As for L56E, the cAMP reporter score was -2.07 in series [1] (pH 5.5); -1.32 in series [1] (pH 6); -0.938 in series [1] (pH 6, modulator: ogerin); -0.751 in series [1] (pH 6.5, modulator: ogerin). In series [2], the surface expression score was -2.4.

As to L56T, the cAMP reporter score in series [1] (pH 5.5) is -1.38; in series [1] (pH 6) it was -0.938; in series [1] (pH 6, modulator: ogerin), -1.82; in series [1] (pH 6.5, modulator: ogerin), -0.858. In series [2], the surface expression score was -2.44.

As to L56I, the cAMP reporter score in series [1] (pH 5.5) is 0.338; in series [1] (pH 6), -0.416; in series [1] (pH 6, modulator: ogerin), 0.635; in series [1] (pH 6.5, modulator: ogerin), -0.908. Besides, the surface expression score in series [2] was found to be 0.417.

Take L56N: the cAMP reporter score in series [1] (pH 5.5) was -1.09; in series [1] (pH 6, modulator: ogerin) it was -1.41; in series [1] (pH 6.5, modulator: ogerin) it was -0.809.

Consider L56F, for which the cAMP reporter score in series [1] (pH 5.5) was -0.246; in series [1] (pH 6), 3.48; in series [1] (pH 6, modulator: ogerin), 0.373; in series [1] (pH 6.5, modulator: ogerin), 1.75. For the same variant, the surface expression score in series [2] is -2.32.

With L56R, the cAMP reporter score in series [1] (pH 5.5) was -2.11; in series [1] (pH 6), -0.885; in series [1] (pH 6, modulator: ogerin), -1.59; in series [1] (pH 6.5, modulator: ogerin), -1.09. In addition, the surface expression score in series [2] was -1.53.

L56K: the cAMP reporter score in series [1] (pH 5.5) is -0.921; in series [1] (pH 6), -1.69; in series [1] (pH 6, modulator: ogerin) it was -0.808; in series [1] (pH 6.5, modulator: ogerin), -0.622. Further, the surface expression score in series [2] is -2.64.

As to L56Q, the cAMP reporter score was -1.32 in series [1] (pH 5.5); -0.622 in series [1] (pH 6); -0.631 in series [1] (pH 6.5, modulator: ogerin). In series [2], the surface expression score is -3.35.

Regarding L56M, the cAMP reporter score in series [1] (pH 5.5) was 0.676; in series [1] (pH 6), 1.39; in series [1] (pH 6, modulator: ogerin) it was -0.099; in series [1] (pH 6.5, modulator: ogerin) it was 1.13. The surface expression score in series [2] was -0.795.

As to L56V, the cAMP reporter score is -1.25 in series [1] (pH 5.5); -0.848 in series [1] (pH 6, modulator: ogerin); -0.088 in series [1] (pH 6.5, modulator: ogerin). Besides, the surface expression score in series [2] came to 0.3.

Turning to L56W, the cAMP reporter score in series [1] (pH 5.5) is 0.093; in series [1] (pH 6) it was 0.228; in series [1] (pH 6, modulator: ogerin) it was -0.42; in series [1] (pH 6.5, modulator: ogerin), -0.143. In series [2], the surface expression score is -1.85.

Turning to L56H, the cAMP reporter score was -1.14 in series [1] (pH 5.5); 0.349 in series [1] (pH 6); -1.74 in series [1] (pH 6, modulator: ogerin); -1.75 in series [1] (pH 6.5, modulator: ogerin). In addition, the surface expression score in series [2] is -1.69.

L56A: the cAMP reporter score in series [1] (pH 5.5) was -1.31; in series [1] (pH 6, modulator: ogerin), -1.52; in series [1] (pH 6.5, modulator: ogerin), -0.76. The surface expression score in series [2] was -2.43.

For the variant L56P, the cAMP reporter score in series [1] (pH 5.5) was -2.15; in series [1] (pH 6) it was -1.09; in series [1] (pH 6, modulator: ogerin) it was -1.2; in series [1] (pH 6.5, modulator: ogerin), -1.14. In addition, the surface expression score in series [2] is -1.92.

For L56G, the cAMP reporter score is -1.3 in series [1] (pH 5.5); -0.439 in series [1] (pH 6); -1.5 in series [1] (pH 6, modulator: ogerin); -1.02 in series [1] (pH 6.5, modulator: ogerin). The surface expression score in series [2] was -2.51.

As to L56S, the cAMP reporter score in series [1] (pH 5.5) is -1.49; in series [1] (pH 6), -0.703; in series [1] (pH 6, modulator: ogerin) it was -1.35; in series [1] (pH 6.5, modulator: ogerin) it was -1.33. Also, in series [2], the surface expression score is -1.83.

Regarding A66_D67insGS, the cAMP reporter score was -1.2 in series [1] (pH 5.5); -1.1 in series [1] (pH 6); -1.07 in series [1] (pH 6, modulator: ogerin); -1.74 in series [1] (pH 6.5, modulator: ogerin). The surface expression score in series [2] was -1.99.

As for N62_L63del, the cAMP reporter score in series [1] (pH 5.5) is -1.05; in series [1] (pH 6) it was -1.55; in series [1] (pH 6, modulator: ogerin), -1.51; in series [1] (pH 6.5, modulator: ogerin), -0.945. Besides, in series [2], the surface expression score is -2.46.

Take A52_R53insGSG: the cAMP reporter score is -0.961 in series [1] (pH 5.5); -1.23 in series [1] (pH 6); -1.57 in series [1] (pH 6, modulator: ogerin); -0.94 in series [1] (pH 6.5, modulator: ogerin). Besides, in series [2], the surface expression score is -1.73.

With E55_G57del, the cAMP reporter score was -0.704 in series [1] (pH 5.5); -0.039 in series [1] (pH 6); -0.606 in series [1] (pH 6, modulator: ogerin); 0.247 in series [1] (pH 6.5, modulator: ogerin). Besides, the surface expression score in series [2] was -2.38.
